Source: PubChem BioAssay AID504937 (National Center for Advancing Translational Sciences (NCATS), 2011)
Among all 340,000 compounds or so, about 20 (0.006%) were called active. The shares of active, inactive and inconclusive entries below differ from those in the screen. Calls come from the whole dose curve; as a rule, active = well fitted inhibition curve with a large enough effect; inconclusive = small, poorly fitted or top-dose-only effect; inactive = no such curve, though single readings can be large or run the other way. Potencies of inconclusive entries are doubtful fits and often do not repeat.

target: Sphingomyelin phosphodiesterase (Homo sapiens) (UniProt P17405); assay: Inhibitors of Secretory Acid Sphingomyelinase (S-ASM): qHTS; settings: placental ASM, HMU-PC fluorogenic substrate (series up to 57.5 µM), 60 min
Outline: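 Fluorescence read-out (Ex 386 nm, Em 447 nm) after stopping the reaction at pH 10. Enzyme: ASM from human placenta; substrate HMU-PC0, 9 uM final; 60 min, 37 °C. Compound preincubation 10 min, ambient temperature.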
Potency is the fitted concentration of half-maximal effect; tags give direction and shape of the fitted curve.

Sequence of UniProt P17405 (P17405 whole entry, looked up): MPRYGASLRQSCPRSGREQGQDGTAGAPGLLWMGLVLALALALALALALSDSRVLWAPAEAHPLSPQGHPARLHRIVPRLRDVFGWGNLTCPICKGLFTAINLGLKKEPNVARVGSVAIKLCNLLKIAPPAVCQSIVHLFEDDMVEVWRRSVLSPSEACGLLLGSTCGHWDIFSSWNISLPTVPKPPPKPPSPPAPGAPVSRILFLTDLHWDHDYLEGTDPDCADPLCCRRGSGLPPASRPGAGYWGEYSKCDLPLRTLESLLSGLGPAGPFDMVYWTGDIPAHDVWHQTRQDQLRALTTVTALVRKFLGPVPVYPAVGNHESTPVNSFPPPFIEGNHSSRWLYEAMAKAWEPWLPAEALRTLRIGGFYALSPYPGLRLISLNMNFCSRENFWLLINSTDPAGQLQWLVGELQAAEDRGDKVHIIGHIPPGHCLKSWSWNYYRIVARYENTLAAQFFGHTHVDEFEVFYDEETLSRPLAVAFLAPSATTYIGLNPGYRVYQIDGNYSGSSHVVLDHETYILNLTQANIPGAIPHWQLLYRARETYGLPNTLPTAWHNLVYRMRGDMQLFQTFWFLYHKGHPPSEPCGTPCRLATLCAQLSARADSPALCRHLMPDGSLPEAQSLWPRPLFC

| Structure (SMILES) | Potency |
| --- | --- |
| N#CC1(NC(=O)CSc2nncn2-c2ccccc2F)CCCC1 | inactive |
| O=C1[C@H](Cc2ccccc2)NCC=CC[C@H](c2ccc(Cl)cc2)N1Cc1ccc(Cl)cc1 | inconclusive: 126 µM [inhibitor, partial curve, poor fit] |
| CCOc1ccc(N2CC(C(=O)Nc3ccc(S(=O)(=O)N4CCCC4)cc3)CC2=O)cc1 (stereo not given) | inconclusive: 56.2 µM [inhibitor, partial curve, poor fit] |
| O=C(CSc1nnnn1C1CC2CCC1C2)Nc1ccnc2ccccc12 (stereo not given) | inactive |
| CCN(Cc1nc2cc(Cl)ccc2c(=O)[nH]1)C(=O)c1cccc(NC(=O)c2cccs2)c1 | inconclusive: 316 µM [inhibitor, partial curve, poor fit] |
| CCCCSCCCNC(=O)c1cn(C)c2ccc(S(=O)(=O)N3CCCC3)cc2c1=O | inconclusive: 89.1 µM [inhibitor, partial curve, poor fit] |
| Cn1ncc2c(Nc3cccc(Cl)c3)nc(Nc3cccc(Cl)c3)nc21 | inconclusive: 89.1 µM [inhibitor, partial curve] |
| CCCCCCCCCCCCCCCC(O)C[N+](C)(C)CCO (stereo not given) | inconclusive: 56.2 µM [inhibitor, single point] |
| O=C(NCc1ccco1)c1ccc(COc2ccc(Cl)cc2)cc1 | inconclusive: 112 µM [inhibitor, partial curve, poor fit] |
| COc1ccc(/C=N\NC(=O)CNC(=O)C(c2ccccc2)c2ccccc2)cc1[N+](=O)[O-] | inconclusive: 100 µM [inhibitor, single point] |
| OCC1(Cc2ccccc2)CCN(CCCC2CCCC2)CC1 | inactive |
| COc1ccc(-c2csc(NC(CO)c3nc4ccccc4n3Cc3ccc(C)cc3)n2)cc1 (stereo not given) | inconclusive: 79.4 µM [inhibitor, single point] |
| O=C(CC(=O)c1ccccc1)CS(=O)(=O)c1ccccc1 | inactive |
| C[C@@]12CCC=C[C@H]1[C@H](c1ccc3ccccc3c1)N(Cc1ccccc1)C2=O | inconclusive: 178 µM [inhibitor, partial curve, poor fit] |
| CNc1nc(Cl)c(SC)c(NC2CCCCC2)n1 | inactive |
| O=C(Nc1ccc(S(=O)(=O)N2CCN(c3ccccc3)CC2)cc1)c1cccs1 | inconclusive: 200 µM [inhibitor, partial curve, poor fit] |
| CCOC(=O)C1=C(N)Oc2cc(O)ccc2C1c1ccc([N+](=O)[O-])cc1 (stereo not given) | inconclusive: 89.1 µM [inhibitor, single point] |
| CCOc1cc(/C=C\c2[nH]c(=O)[nH]c(=O)c2[N+](=O)[O-])ccc1OC(C)CC (stereo not given) | inconclusive: 316 µM [inhibitor, partial curve, poor fit] |
| CCOc1ccc(N2C(=O)c3ccccc3NC2(C)CC)cc1 (stereo not given) | inactive |
| COc1ccc(-c2nc(CS(=O)(=O)CC(=O)NCc3cccc(Br)c3)c(C)o2)cc1 | inconclusive: 50.1 µM [inhibitor, partial curve] |
| C=CC[n+]1c(-c2ccc(C)cc2)csc1Nc1c(C)n(C)n(-c2ccccc2)c1=O | inactive |
| Cc1cc(C)nc(SCC(=O)Nc2ncc(Cc3cccc(Cl)c3Cl)s2)n1 | inactive |

| Structure (SMILES) | Potency |
| --- | --- |
| Cc1ccccc1-c1n[nH]c(=S)n1/N=C/C=C/c1ccco1 | inactive |
| NC(=O)c1cccc(-c2cc(Nc3ccc(OC(F)(F)F)cc3)ncn2)c1 | inconclusive: 112 µM [inhibitor, partial curve, poor fit] |
| COc1ccc(C)cc1NC(=O)CN(Cc1nnc(-c2ccc(Cl)cc2)o1)C1CCCC1 | inconclusive: 89.1 µM [inhibitor, partial curve, poor fit] |
| CCCc1ccc(-c2csc(NC(=O)C3=COCCO3)n2)cc1 | inconclusive: 70.8 µM [inhibitor, partial curve, poor fit] |
| C#CCOCCOCCOCCNc1nc(N2CCN(C(=O)CCCCCCCCCCNC(=O)[C@H](CCCCN)n3cc(C[C@@H](C)CC)nn3)CC2)nc(N2CCN(C(=O)CCCCCCCCCCNC(=O)[C@@H]([C@H](C)O)n3cc(C)nn3)CC2)n1 | inactive |
| O=C(Nc1cc([N+](=O)[O-])ccc1N1CCCC1)c1ccccc1 | inconclusive: 100 µM [inhibitor, partial curve, poor fit] |
| COc1ccccc1N1CCN(C(=O)c2cc3cc(Cl)ccc3[nH]2)CC1 | inconclusive: 200 µM [inhibitor, partial curve, poor fit] |
| Cc1ccc(O)c(C(=O)c2cnc3c(c2)CN(CCC(C)C)C(=O)N3)c1 | inactive |
| CCN(c1ccccc1)S(=O)(=O)c1ccc(OC)c(NC(=O)c2ccccc2OC)c1 | inactive |
| O=C(COC(=O)Cn1cnc2ccccc21)Nc1ccc(F)c(F)c1 | inconclusive: 794 µM [inhibitor, partial curve, poor fit] |
| O=C1C2C3C=CC(CC3)C2C(=O)N1c1nccs1 (stereo not given) | inactive |
| COc1ccc(C(=O)N2CCCC(CNC(=O)c3ccccc3Cl)C2)o1 (stereo not given) | inconclusive: 39.8 µM [inhibitor, single point] |
| NC(=O)N/N=C(/CCCCCC/C(=N\NC(N)=O)c1ccccc1)c1ccccc1 | inconclusive: 251 µM [inhibitor, partial curve, poor fit] |
| Cc1sc2nc(C3CC3)nc(N3CCN(C(=O)c4ccc(Cl)cc4)CC3)c2c1C | inconclusive: 398 µM [inhibitor, partial curve, poor fit] |
| CCOc1ccc(/C=C2\SC(=S)N(NC(=O)c3ccncc3)C2=O)cc1OC | inconclusive: 79.4 µM [inhibitor, partial curve, poor fit] |
| CCC(C)(C)NC(=O)C(C(C)C)N(CC1CCCO1)C(=O)CNS(=O)(=O)c1ccccc1 (stereo not given) | inconclusive: 708 µM [inhibitor, partial curve, poor fit] |
| COc1ccc(-c2nnc(COc3ccc4ccccc4c3)o2)cc1OC | inconclusive: 89.1 µM [inhibitor, single point] |
| CCn1cc(/C=C/c2cc[n+](C)cc2)c2ccccc21 | inconclusive: 200 µM [inhibitor, partial curve, poor fit] |
| O=C(N/N=C/c1cccc(Oc2ccccc2)c1)c1cccc(Br)c1 | inactive |
| COc1ccc(-c2csc(NC(C)c3nc4cc(Cl)c(Cl)cc4n3CCCO)n2)cc1 (stereo not given) | inconclusive: 100 µM [inhibitor, single point] |
| Cn1cccc1/C=C1\SC(=O)N(c2ccc(O)cc2)C1=O | inactive |
| Cc1ccc(CC(=O)NC(C)CCc2ccccc2)cc1 (stereo not given) | inactive |

| Structure (SMILES) | Potency |
| --- | --- |
| O=C(CCn1c(=O)[nH]c2ccccc2c1=O)N1CCN(c2cccc(C(F)(F)F)c2)CC1 | inactive |
| CCOC(=O)N1CCN(c2nc3ccc(C(=O)c4ccccc4)cc3n3cnnc23)CC1 | inconclusive: 794 µM [inhibitor, partial curve, poor fit] |
| O=c1oc2ccccc2c(O)c1Sc1c(O)c2ccccc2oc1=O | inconclusive: 0.631 µM [inhibitor, full curve, poor fit] |
| Cc1[nH]nc2c1/C(=N/O)CC(c1ccccc1)C2 (stereo not given) | inconclusive: 126 µM [inhibitor, partial curve, poor fit] |
| O=C(CSc1nc(-c2ccccc2)c(-c2ccccc2)[nH]1)Nc1nccs1 | inconclusive: 112 µM [inhibitor, partial curve, poor fit] |
| CCN1C(=O)[C@H]2[C@@H](c3ccc(Cl)cc3)N3C(=O)CN(CCOC)C(=O)[C@@]3(C)[C@H]2C1=O | inactive |
| O=C(CSc1nnc2c(n1)[nH]c1ccc(S(=O)(=O)N3CCOCC3)cc12)Nc1ccccc1Cl | inconclusive: 63.1 µM [inhibitor, partial curve, poor fit] |
| Cc1ccc(NC(=O)C(C)OC(=O)c2ccc(NS(=O)(=O)c3ccc(F)c(F)c3)cc2)cc1 (stereo not given) | inactive |
| Cc1cccc(N2CN=C3SCC(=O)N3C2)c1 | inactive |
| CCOc1cc(/C=C2\SC(=S)N(Nc3ccccc3)C2=O)ccc1O | inconclusive: 56.2 µM [inhibitor, partial curve, poor fit] |
| Cc1ccc2c(c1)nnn2C1CCN(CC(=O)N2CCN(c3ccc(F)cc3)CC2)CC1 | inactive |
| COc1cc(O)c(C(CC(=O)N2CCCC2)c2cc(OC)c(OC)c(OC)c2)c(OC)c1 (stereo not given) | inactive |
| COc1cc(NC(=O)c2cccs2)c(C(=O)OCC(=O)c2cc(C)n(-c3ccccc3)c2C)cc1OC | inconclusive: 20 µM [inhibitor, partial curve, poor fit] |
| COc1ccc(Cn2c(SCc3cc(C)ccc3C)nc3cc(OC)c(OC)cc3c2=N)cc1 | inconclusive: 56.2 µM [inhibitor, partial curve, poor fit] |
| Cc1cc(Cl)ccc1OCCCC(=O)OCC(=O)c1c(N)n(C)c(=O)n(C)c1=O | inconclusive: 89.1 µM [inhibitor, single point] |
| Cc1ccc(C)c(NC(=O)C2CCCN(S(=O)(=O)c3c(C)nn(C)c3C)C2)c1 (stereo not given) | inactive |
| Cc1[nH]c2ccccc2c1/C=N/NC(=O)c1cc(-c2ccncc2)nc2ccccc12 | inconclusive: 89.1 µM [inhibitor, single point] |
| Cc1ccc(NC(=O)NC(=O)CN2CCN(c3ccc(O)cc3)CC2)c(C)c1 | inactive |
| COc1ccc(NC(=O)c2cc3n(n2)C(C(F)(F)F)CC(c2ccc4c(c2)OCO4)N3)cc1OC (stereo not given) | inconclusive: 112 µM [inhibitor, partial curve, poor fit] |
| S=C(NCCc1ccccc1)NC1CCCCCC1 | inactive |
| COc1ccc(/C=N/Nc2cc(N3CCCC3)nc(N3CCCC3)n2)cc1 | inconclusive: 79.4 µM [inhibitor, partial curve, poor fit] |
